The list shows a part of the results.
What was measured:
Experiment in all cases: glycan array binding signal (z-score within array); higher = stronger binding
Conditions in all cases: glycan notation: IUPAC condensed, linker removed
[1] = target: Man(a1-2)Man(a1-3)[Man(a1-2)Man(a1-6)]Man(a1-6)[Man(a1-2)Man(a1-2)Man(a1-3)]Man(b1-4)GlcNAc(b1-4)GlcNAc
How it was run: (§1)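 Glycan array binding is given as a within-array Z-score, which can be read as non-binding when negative. The arrays, 3228 of them, came from the Consortium for Functional Glycomics database and were retained only where the protein sequence was available. Z-scores were averaged across arrays of the same protein sequence at different concentrations or buffers and across linkers.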

[2] = target: Man(a1-2)Man(a1-3)[Man(a1-6)]Man(a1-6)[Man(a1-2)Man(a1-3)]Man(b1-4)GlcNAc(b1-4)GlcNAc
How it was run: as §1

[3] = target: Man(a1-2)Man(a1-6)[Man(a1-3)]Man(a1-6)[Man(a1-2)Man(a1-2)Man(a1-3)]Man
How it was run: as §1

[4] = target: Man(a1-2)Man(a1-6)[Man(a1-3)]Man(a1-6)[Man(a1-2)Man(a1-2)Man(a1-3)]Man(b1-4)GlcNAc(b1-4)GlcNAc
How it was run: as §1

[5] = target: Man(a1-3)[Man(a1-6)]Man
How it was run: as §1

[6] = target: Man(a1-3)[Man(a1-6)]Man(a1-6)[Man(a1-2)Man(a1-3)]Man(b1-4)GlcNAc(b1-4)GlcNAc
How it was run: as §1

[7] = target: Man(a1-3)[Man(a1-6)]Man(a1-6)[Man(a1-3)]Man
How it was run: as §1

[8] = target: Man(a1-3)[Man(a1-6)]Man(a1-6)[Man(a1-3)]Man(b1-4)GlcNAc(b1-4)GlcNAc
How it was run: as §1

[9] = target: Man(a1-3)[Man(a1-6)]Man(b1-4)GlcNAc(b1-4)GlcNAc
How it was run: as §1

[10] = target: Man(a1-3)[Man(a1-6)]Man(b1-4)GlcNAc(b1-4)[Fuc(a1-6)]GlcNAc
How it was run: as §1

[11] = target: Man(a1-6)Man
How it was run: as §1

[12] = target: Man(b1-4)GlcNAc
How it was run: as §1

[13] = target: MurNAc(b1-4)GlcNAc
How it was run: as §1

[14] = target: Neu5Ac(a2-3)Gal
How it was run: as §1

[15] = target: Neu5Ac(a2-3)Gal(b1-3)GalNAc
How it was run: as §1

[16] = target: Neu5Ac(a2-3)Gal(b1-3)GalNAc(b1-3)Gal(a1-4)Gal(b1-4)Glc
How it was run: as §1

[17] = target: Neu5Ac(a2-3)Gal(b1-3)GalNAc(b1-4)[Neu5Ac(a2-3)]Gal(b1-4)Glc
How it was run: as §1

[18] = target: Neu5Ac(a2-3)Gal(b1-3)GalNAc(b1-4)[Neu5Ac(a2-8)Neu5Ac(a2-3)]Gal(b1-4)Glc
How it was run: as §1

[19] = target: Neu5Ac(a2-3)Gal(b1-3)GalNAc6S
How it was run: as §1

[20] = target: Neu5Ac(a2-3)Gal(b1-3)GlcNAc
How it was run: as §1

[21] = target: Neu5Ac(a2-3)Gal(b1-3)GlcNAc(b1-2)Man
How it was run: as §1

[22] = target: Neu5Ac(a2-3)Gal(b1-3)GlcNAc(b1-2)Man(a1-3)[GlcNAc(b1-4)][Neu5Ac(a2-3)Gal(b1-3)GlcNAc(b1-2)Man(a1-6)]Man(b1-4)GlcNAc(b1-4)GlcNAc
How it was run: as §1

[23] = target: Neu5Ac(a2-3)Gal(b1-3)GlcNAc(b1-2)Man(a1-3)[Neu5Ac(a2-3)Gal(b1-3)GlcNAc(b1-2)Man(a1-6)]Man(b1-4)GlcNAc(b1-4)GlcNAc
How it was run: as §1

[24] = target: Neu5Ac(a2-3)Gal(b1-3)GlcNAc(b1-3)Gal(b1-3)GlcNAc
How it was run: as §1

[25] = target: Neu5Ac(a2-3)Gal(b1-3)GlcNAc(b1-3)Gal(b1-4)GlcNAc
How it was run: as §1

[26] = target: Neu5Ac(a2-3)Gal(b1-3)GlcNAc(b1-3)GalNAc
How it was run: as §1

[27] = target: Neu5Ac(a2-3)Gal(b1-3)GlcNAc(b1-4)Gal(b1-4)Glc
How it was run: as §1

[28] = target: Neu5Ac(a2-3)Gal(b1-3)GlcNAc(b1-6)GalNAc
How it was run: as §1

[29] = target: Neu5Ac(a2-3)Gal(b1-3)GlcNAc6S
How it was run: as §1

[30] = target: Neu5Ac(a2-3)Gal(b1-3)[Fuc(a1-4)]GlcNAc
How it was run: as §1

[31] = target: Neu5Ac(a2-3)Gal(b1-3)[Fuc(a1-4)]GlcNAc(b1-3)Gal(b1-3)[Fuc(a1-4)]GlcNAc
How it was run: as §1

[32] = target: Neu5Ac(a2-3)Gal(b1-3)[Fuc(a1-4)]GlcNAc(b1-3)Gal(b1-4)[Fuc(a1-3)]GlcNAc
How it was run: as §1

[33] = target: Neu5Ac(a2-3)Gal(b1-3)[GlcNAc(b1-6)]GalNAc
How it was run: as §1

[34] = target: Neu5Ac(a2-3)Gal(b1-3)[Neu5Ac(a2-6)]GalNAc
How it was run: as §1

[35] = target: Neu5Ac(a2-3)Gal(b1-3)[Neu5Ac(a2-6)]GlcNAc(b1-3)[Fuc(a1-3)[Gal(b1-4)]GlcNAc(b1-6)]Gal(b1-4)Glc
How it was run: as §1

[36] = target: Neu5Ac(a2-3)Gal(b1-3)]Neu5Ac(a2-3)Gal(b1-4)]GlcNAc
How it was run: as §1

[37] = target: Neu5Ac(a2-3)Gal(b1-4)Glc
How it was run: as §1

B1: Clrb (Mus musculus) (protein)
chain: ITGATKTEQIPVNKTYAACPQNWIGVENKCFYFSEYPSNWTFAQAFCMAQEAQLARFDNQDELNFLMRYKANFDSWIGLHRESSEHPWKWTDNTEYNNTIPIRGEERFAYLNNNGISSTRIYSLRMWICSKLNSYSLHCQTPFFPSGTKHHHHHHHHG
glycan array binding signal (z-score) [1]: -0.252 | glycan array binding signal (z-score) [2]: -0.42 | glycan array binding signal (z-score) [3]: -0.082 | glycan array binding signal (z-score) [4]: -0.503 | glycan array binding signal (z-score) [5]: -0.406 | glycan array binding signal (z-score) [6]: -0.424 | glycan array binding signal (z-score) [7]: -0.427 | glycan array binding signal (z-score) [8]: -0.44 | glycan array binding signal (z-score) [9]: -0.297 | glycan array binding signal (z-score) [10]: -0.228 | glycan array binding signal (z-score) [11]: -0.312 | glycan array binding signal (z-score) [12]: -0.371 | glycan array binding signal (z-score) [13]: 2.51 | glycan array binding signal (z-score) [14]: -0.322 | glycan array binding signal (z-score) [15]: -0.361 | glycan array binding signal (z-score) [16]: -0.431 | glycan array binding signal (z-score) [17]: -0.475 | glycan array binding signal (z-score) [18]: -0.207 | glycan array binding signal (z-score) [19]: -0.305 | glycan array binding signal (z-score) [20]: -0.306 | glycan array binding signal (z-score) [21]: -0.313 | glycan array binding signal (z-score) [22]: -0.36 | glycan array binding signal (z-score) [23]: -0.373 | glycan array binding signal (z-score) [24]: -0.434 | glycan array binding signal (z-score) [25]: -0.054 | glycan array binding signal (z-score) [26]: -0.447 | glycan array binding signal (z-score) [27]: -0.291 | glycan array binding signal (z-score) [28]: -0.477 | glycan array binding signal (z-score) [29]: -0.211 | glycan array binding signal (z-score) [30]: -0.041 | glycan array binding signal (z-score) [31]: -0.359 | glycan array binding signal (z-score) [32]: -0.248 | glycan array binding signal (z-score) [33]: -0.419 | glycan array binding signal (z-score) [34]: -0.386 | glycan array binding signal (z-score) [35]: -0.305 | glycan array binding signal (z-score) [36]: -0.312 | glycan array binding signal (z-score) [37]: -0.397
